Test results published in the RNAGym collection of RNA variant scans (doi:10.1073/pnas.2313332121).
Variants at the floor of the assay are shown more often than the library holds them.

B1: TPR 5TU (parent)
chain: GGAUCUUCUCGAUCUAACAAAAAAGACAAAUCUGCCACAAAGCUUGAGAGCAUCUUCGGAUGCAGAGGCGGCAGCCUUCGGUGGCGCGAUAGCGCCAACGUUCUCAACUAUGACACGCAAAACGCGUGCUCCGUUGAAUGGAGUUUAUCAUG

Variants of: B1
Assay: polymerase ribozyme fitness, log enrichment relative to wild type (log ratio); higher = more active; in vitro selection for triplet polymerase activity
In short: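 Mutant libraries of each subunit of a heterodimeric triplet polymerase ribozyme were built by PCR and transcribed. Each library went through one round of in vitro selection in triplicate: annealing with biotinylated primer, partner subunit and triplets, frozen incubation at −7 °C, gel excision of extended constructs, streptavidin-bead capture and RT-PCR. Input and output libraries were Illumina-sequenced; only genotypes with ≥10 input reads and ≥1 read per output were kept. Fitness is log2(genotype enrichment/wild-type enrichment), using inverse-variance-weighted replicate averages.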

Polymerase ribozyme fitness (log ratio), ≤ -4.2:
G92C U151G
A142C U151A
A91U C132U G140U
C123U G133A
C87G C95U A107G
C108G G128U
C93G G141C U144A
G94C A107U C108A
A89U A91G U148A
G88C G94U
C87U A91G C93U G133U U135G
U111G A150G G152A
C93G G140C G143C
A91U A115G
C87G G100A C116U
C95A C99U A137C U151G
A91C C131A C149G
G94C C131G C149A
C123U A147C A150C
A97C A107G
G88C A119G
G92C G143C U148G
A107C C131G
C123G G140A A150G
C108G
C108A
C87G A89U U90G A150G
U90G C93U
G94C C114A U127A
C87A C103G C105G G117A
C108G A120G
A91C A120U
G133U G140U U144C
C108A C116A
G92A A147G
G92A C93G U102C
C87A C95A C96G A106U
C87G
U90A U144G
C93A C118G A142U
C105G G112C U134A A147C
G88U U139C
C93A U111G C118G
G143C C149G
A91U C93A G140A
G88U C96A
A137C U139A
U90C A137C
A97C C108G A120C U135G
G88U C118G
C87G A113C
C93G G100A A110U
C93U C96U A113C G143A
G88U C125A U144A
G94C C116U A121U G140C
U90A C93A A107G G143C
C87A U102A G141A
A91U G100A U135G
G100A C149A
C87G C93A C99A
C93A C99G U127C
C87A C96G
G88A A98G U102C A115C C116A
C99G U139C A142C
A107C C125G
C87A A137C
C93A C95U A115U A147U
G133U U146G
A107U U111G A121U U134C
C87G U144C A150U
G100U C116G U145G G152A
A91C A97G A107U
A89U G94U C108G C118U A120C A122C A137C
C87A G124C
G92C A119G U134C C149A
C87G A119C
C87A G128A U135C
G92A C118G G133U G136A
C103G A107U A115C A122G C132A G143C
G100A A147U
C87G C129A
C87A U135G G141U
U90C C131A
A107U U130G U148A
A89U C99G U151A
C93U A107G C118G
C93A A106G A107U C114G U148C
G133A U144A A147C
C87A U101C G126U
U101A A110C A119G
A91G G136C
U90G G126C U127A
C87A G136C
A106G G141C A150G
C96U G100A U139C
G88A U148C
A89U C103G A110C
C93A A110C
C87G U104C C149A
C87G A97G A121U
U101C U151C
G94C A115G A137C
C105G G117U G128U
A91C A142G
G88A U134G
A98G U104C A110G A119U U130A
C87A A97C U134A
G88A C99G
G88A C99U
C93G U102G A107G
A107C A121G G126A C132G U135C
G92C U127G U145A A150C
C93G A115U
U90G C96U A113G
G100A A107U A113U
C93U C129U A142C U146C
C87A G100C C131G
U90C G92A C105G
G92C A97G U104A A119U A120U U144G
A91C C103A A142G
C96A A106U G140C
G94A A97U C116A C129A
G88C C99G A142U
C93G C132G U139G
G88A A106U A138U U139G G143U U144G
A91C C99G A106U C125U U139C U146C
G88C U101A G124A C125U
C87G C118A
C87G C118G
C129G U146G
U139A A150G
C87G U145A
G141C A150C
C87A C123U
U90C C114U
A91C C95U
G86U U90G G143A
A98U G128U G140C
G88A U151C
U104G A142C A150C
C93U C105U A113C U148C
U90C C105U G141A
C93A C123U A137U
U111C A115C
U90G C95G A97G C105U G152U
G94C C96U A119G C125U C149G
U90G G92U
C93U C116G A150G
C93G C116G G141U U144A
C87G A142C
G92C C114A C118U C123G
A107U C118A U145G U148G A150G
C87G G100C U139C C149G
C87G G140U
G117U U139A
C96A A98C A142C G143U
A107C A142G
A91U G133A
C93G A107U A138U
G136C U144G C149U
C99U C103A U127G G141A
G88C A113G C114A
G86U U104G C125U
C96U U127A
G94U G140C U151G
G88A C95G C116A A119G G136A U145C
